To fix the notation:
B1: tRNA (parent)
chain: CUCUCGGUAGCCAAGUUGGUUUAAGGCGCAAGACUUUAAUUUAUCACUACGAAAUCUUGAGAUCGGGCGUUCGACUCGCCCCCGGGAGAUUUUUUCCUCGAGCAA

This sample is rich in variants without activity. A value given as a limit tells only on which side of the number the result lay.

Among the data in the RNAGym collection of RNA variant scans (doi:10.1101/gad.245936.114) are nonsense suppression values, retold here.

In this series the parent is B1. As to the kind of experiment: nonsense suppression (GFP-seq) (ratio to wild type); higher = more function; SUP4oc tRNA, yeast GFP reporter sort-seq. An outline of the steps: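 Yeast carrying genome-integrated SUP4oc tRNA variants from a library with ~3% random mutations were grown in raffinose/galactose medium with 80 mg/L adenine. Each strain also carried a galactose-driven GFP ochre reporter and RFP. Cells were sorted into GFP/RFP bins, and each bin was Illumina-sequenced (phred ≥30). Nonsense suppression (GFPSEQ) is the bin median GFP/RFP, weighted by each variant's estimated cell share per bin, relative to wild-type SUP4oc; variants needed ≥100 reads and ≥30 cells.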
CUCUCGGUAGCCAAGUUGGUAUAAGGCGCAAGACUUUAAUUUAUCACUACGAAUUCUUGAGAUCGGGCGUUCGACCCGCCCCCGGGAGAUUUUUUCCUCGAGCAA: the nonsense suppression was 0.751.

Regarding CUCUCGGUAGCCAAGUUGGUUUAAGGCGCAAGACUUUAAUUUAUCACUACGAAAGCUUGAAAUCGGGCGUCCGACUCGCCCCCGGGAGAUUUUUUCCUCGAGCAA, the nonsense suppression was not above 0.026.

Consider CUCUCGGUUGCCACGUUGGUUUAAGGCGCAAGACUUUAAUUUAUCACUACGAAAGCUUGAGAACGGGCGUUCGACUCGCCCCCGGGAGAUUUUUUCCUCGAGCAA, for which the nonsense suppression is not above 0.026.

Consider CUCACGGUAGCCAAGUUGGUUUGAGGCGCAAGACUUUAAUUUAUCACUACGAAAUCUUGAGAUCGGGCGUUCGACUCGCCCCCGGGAGAUUUUUUCCUCGAGCAA, for which the nonsense suppression came out at 0.288.

In the case of CUCUCGGUAGCCAAGUUGGUCUAAGGCGCAAGACUUUAAUUUAUCACUACGAAAUCUUGAGAUCGGGCGAUCGACUCGCCCCCGGGAGAUUUUUUCCUCGAGCAA, the nonsense suppression was not above 0.026.

With CUCUCGGUAGCCAAGUGGGUUUAAGGCGCAAGACUUUAAUUUAUCACUACGAAAUCUUGAGAACGGGCGUUCCACUCACCCCGGGGAGAUUUUUUCCUCGAGCAA, the nonsense suppression was not above 0.026.

Take CUCUCUGUAUCCAAGUUGGUCUAAGGCGCAAGACUUUAAUUUAUCACUACGAAAUCUUGAGAUCGGGCGUGCGACUCGCCCCCGGGAGAUUUUUUCCUCGAGCAA: the nonsense suppression is not above 0.026.

Take CUCUGGGUAGCCAAGUUGGUUUAACGCGCAAGACUUUAAUUUAUCACUACGAAAUCUUGAGAUCGGGCCUUCGACUCGCCCCCGGGAGAUUUUUUCCUCGAGCAA: the nonsense suppression was not above 0.026.

With CUCGCGGUAGCCAAGUUGGUUUAAGGCGCAAGACUUUAAUUUAUCACUACGAAAUCUUGAGAUCGGGCGUUCGACUCGCCCCGGGGAGAUUUUUUCCUCGAGCAA, the nonsense suppression is not above 0.026.

On to CUCUCGGUAGCCAAGUUAGUUUAAGGCGCAAGACUUUAAUUUAUCACUACGAACACUAGAUAUCGGCCGUUCGACUCGCCCCCGGGAGAUUUUUUCCUCGAGCAA, for which the nonsense suppression was not above 0.026.

CUCUCGGUAGCCAAGUUCAUUUAAGGCGCAAGACUUUAAUUUAUCACUACGAAAUCUUGAGAUCGAGCGUUCGACUCGCCCCCGGGAGAUUUUUUCCUCGAGCAA: the nonsense suppression was not above 0.026.

For the variant CUCUCGGUAGCCAAGUUGGUUUAAGGCGCAAGACUUUAAUUUAUCACUACGAACUCCUGAGAUCGCGCGUUCGACUCGCCCCCGGGAGAUUUUUUCCUCGAGCAA, the nonsense suppression is not above 0.026.

On to CACUCGGUAGCCAAGUUGGUUUAAGGCGCAAGAAUUUAAUUUAUCACUACGAAAUCUUGAGAUCGGGCGUUCGACUCUCCCCCGGUAGAUUUUUUCCUCGAGCAA, for which the nonsense suppression is not above 0.026.

Consider CUCUCGGUAGCCAAGGUGGUUUAAGGCGCAAUACUUUAAUUUAUCACUACGAAAUCUUGAGAUCGGGCGUUCGACUCGACCCCGGGAGAUUUUUUCCUCGAGCAA, for which the nonsense suppression was not above 0.026.

With CUCUCGGUAGCCAAGUUGGUUUAAAGCGCAAUACUUUAAUUUAUCACUACGAAAUCUUGAGAUCGGGCGUGCGACUCGCCCCCGGGAGAUUUUUUCCUCGAGCAA, the nonsense suppression was not above 0.026.

Turning to CUCUCGGUAGCCAUGUUGGUUUAAGGCGCAUGACUUUAAUUUAUCACUACGAAAUCUUGAGAUCGGGCGUUCGACUCGCCCCCGGGGGAUUUUUUCCUCGAGCAA, the nonsense suppression is not above 0.026.

As for CUCUCGGUAGCCACGUUGGUUUAAGGCGCAAGACUUUAAUUUAUCACUACGAAAUCUGUAGAUCGGGCGUUCGACUCGCCCUCGGGAGAUUUUUUCCUCGAGCAA, the nonsense suppression is not above 0.026.

In the case of CUCGCGGUAUCCAAGUUGGUUUAAGGCGCAAGACUUUAAUUUAUCACUACGAAAACUUGAGAUCGGGCGUUCGACUCGCCCCCGGGAGAUUUUUUCCUCGAGCAA, the nonsense suppression is not above 0.026.

For CUCUCGGUAGCCAAGUUGGUUUAAGGCGCAAGACUUUAAUUUAUCACUACGAAAUCUUUAGAUCGGGCAUUCGACUCGCCCCCGUGAGAUUUUUUCCUCGAGCAA, the nonsense suppression was not above 0.026.

For the variant CUGUCGGUAGCCAAGUUGGUUUAAGGCGCAAGACUUUAAUUUAUCACUACGAAAUCUUGAGAUCGGGCGUUUGACUCGCCCCCGGGAGAUUUUUUCCUCGAGCAA, the nonsense suppression is not above 0.026.

Take CUCUCAGUAGCCAAGGUGGUUUAAGGCGCAAUACUUUAAUUUAUCACUACGAAAUCUUGAGUUCGGGCGUUCGACUCGCCCCCGGGAGAUUUUUUCCUCGAGCAA: the nonsense suppression is not above 0.026.

Turning to CUCUCGGUAGGCAAGUUGGUUUAAGGCGCAGGACUUUAAUUUAUCACUACGAAAUCUUGAGAUCGGGCGUUCGACUCGCCCCCGGGAGAUUUUUUCCUCGAGCAA, the nonsense suppression was not above 0.026.

On to CUCUCGGUAGCCCAGUUGGUUUAAGCCGCUAGACUUUAAUUUAUCACUACGAAAUCUUGAGAUCGGGCGUUCGACUCGCCCCCGGGAGAUUUUUUCCUCGAGCAA, for which the nonsense suppression was not above 0.026.

Consider CUCUCGGUAGCCAAGUUGGUUUAAGGCGCAAGAAUUUAAUUUAUCACUACGAAAUCUUGAGAUCGGGCGUUCGACUCGCCCCCGUGAGAUUUUUUCCUCGAGCAA, for which the nonsense suppression is not above 0.026.

As for CUCUCGGUAGCCAAGUUGGUUUAAGGCGCAAGACUUUAAUUUAUCACUACGAAAUCUUGUGAUCGUGCGUUCGACUCGCCCCCGGGAGAUUUUUUCCUCGAGCAA, the nonsense suppression is not above 0.026.

AUCUCGGUAGCCAAGUUGGUUUAAGGCGCAAGACUUUAAUUUAUCACUACGAAUUCUUGAGAUCGGGCGUUGGACUCGCCCCCGGGAGAUUUUUUCCUCGAGCAA: the nonsense suppression is not above 0.026.

CUCUCGGUAGCCAAGUUGGUUUAAGGCGCAAGACUUUAAUUUAUCACUACGAAACCUUGAGAACGGGCGUUUGACUCGCCCCCGGGAGAUUUUUUCCUCGAGCAA: the nonsense suppression was not above 0.026.

Consider CUCUCGGUAGGCAAGUUGGUUUAAGGCGCAACACUUUAAUUUAUCACUACGAAAUCUUGAGAUUGCGCGUUCGACUCGCCGCCGGGAGAUUUUUUCCUCGAGCAA, for which the nonsense suppression was not above 0.026.

As for CUCUCGGUAGCCAAGUUGGUUGAAGGCGCAAGACUUUAAUUUAUCACUACGAAAUCUUGAGAUCGGGCGUUCGACUGUCCCCCGGGAGAUUUUUUCCUCGAGCAA, the nonsense suppression was not above 0.026.

Take GUCUCGGUAGCCAGGUUGGUUUAAGGCGCAAGACUUUAAUUUAUCACUACGAAAUCUUGAGAUCGGGCGUUCGACUCGCCCCCGGGAGAUUUUUUCCUCGAGCAA: the nonsense suppression is not above 0.026.

As for GUCUCGGUAACCAAGUUGGUUUAAGGCGCAAGACUUUAAUUUAUCACUACGAAAUCUUGAGAUCGGGAGUUCGACUCGCCCCCGGGAGAUUUUUUCCUCGAGCAA, the nonsense suppression is not above 0.026.

Regarding CUCUCGGAGGCCAAGUUGGUUUAAGGCGCAAGACUUUAAUUUAUCACUACGAAAUCUAGAGAUCGGGCGUUGGACUCGACCCCGGGAGAUUUUUUCCUCGAGCAA, the nonsense suppression is not above 0.026.

On to CUCUCGGUAGCCAAGUUGAUUUAAGGCGCAAGACUUUAAUUUAUCACUACGAAAUCUUGAGAUCGGGCGUUAGACUCGCCCCCGGGAGAUUUUUUCCUCGAGCAA, for which the nonsense suppression was not above 0.026.

As to CUCUCGCUAGACAAGUUGGUGUAUGGCGCAAGACUUUAAUUUAUCACUACGAAAUCCUGAGAUCGGGCGUUCGACUUGCCCCAGGGAGAUUUUUUCCUCGAGCAA, the nonsense suppression is not above 0.026.

As to CUAUCGGUAGCCAAGUUGGUUUAAGGCGCAAGACUUUAAUUUAUCACUACGAAAUCUUGAGAUCGGGCGUUCGACUCUCCCCCGGGAGAUUUUUUCCUCGAGCAA, the nonsense suppression was not above 0.026.

With CUCUCGGUAUCCAAGUUGGUUUAAGGCCCAAGACUUUAAUUUAUCACUACGAAAUUUUGAGAUCGGGCGUUCGACUCGCCCCCGGGAGAUUUUUUCCUCGAGCAA, the nonsense suppression is not above 0.026.

On to CUCUCGGUAGCCAAGUUGGUUUAAGACGCAAGACUUUAAUUUAUCACUACGAAAUCUUGAGAUCGGGCGUUCGACUCUCCCCCGGGAGAUUUUUUCCUCGAGCAA, for which the nonsense suppression is not above 0.026.

As for UUCACGGUAGCCAAGUUGGUUUAAGGCGCAAAACUUUAAUUUAUCACUACGAAAUCUUGAGAACGGGCGUUCGACUCGCGCCCGGGAGAUUUUUUCCUCGAGCAA, the nonsense suppression is not above 0.026.

Take CUCUCGGUAGCCAAUUUGGAUUAAGGCGCAACACUUUAAUUUAUCACUACGAAAUCUUGAGAUCGGGCGUUCGACUCGCCCCCGGGAGAUUUUUUCCUCGAGCAA: the nonsense suppression was not above 0.026.

Consider CUCUCGGUAGCCAAGUUGGUUUAAUGCGCAAGACUUUAAUUUAUCACUACGAAAUCUCGAGAUCGGGCGUUCGACUCGCCCCCGGGAGAUUUUUUCCUCGAGCAA, for which the nonsense suppression was not above 0.026.

Take CCCUCGGUAGCCAAGUUGGUUUAAGGCGCAAAACUUUAAUUUAUCACUACGAAGUCUUGAGAUCGGGCGUUCGACUCGCCCCCGGGAGAUUUUUUCCUCGAGCAA: the nonsense suppression is not above 0.026.

Regarding CUCUCGGUAGCCAAGUUGGUUUAAGGCGCAAGUCUUUAAUUUAUCACUACGAAAUCUAGAGAUCGAGCAUUCGACUCGCCCGCGGGAGAUUUUUUCCUCGAGCAA, the nonsense suppression is not above 0.026.

GUCUCGGUAGCCGAGUUGGUUUAAGGCGCAAGACUUUAAUUUAUCACUACGAAAUCAUGAGAUCGGGCGUUCGACUCGCCCCCGGGAGAUUUUUUCCUCGAGCAA: the nonsense suppression was not above 0.026.

For CUCUCGGUAGCCAAGUUGGUUUAAGGCGCAAGACUUUAAUUUAUCACUACGAAUUCUGGAGAUCGGGCGUUCGACUCGCCCCCGGGAGAUUUUUUCCUCGAGCAA, the nonsense suppression was not above 0.026.

With CCCUCGGUAGCCUAGUUGGUUUAAGGCGCAAGACUUUAAUUUAUCACUACGAAAUCUUGAGAUCGGGCGUUAGACUCGCCCCCGGGAGAUUUUUUCCUCGAGCAA, the nonsense suppression was not above 0.026.

Consider CUCUCGGUAGCCAAGUUGAUCUACGGCGCAAUACUUUAAUUUAUCACUACGAAAUCUUGAGAUCGGGCGUUCGACUCGCCCCCGGGAGAUUUUUUCCUCGAGCAA, for which the nonsense suppression was not above 0.026.

Turning to CUCUCGGUAGCCAAGUUGGUUCAAGGCGCAAGACUUUAAUUUAUCACUACGAAAUCUUGAGCUCGGGCGUUCGACUCGCCCCCGGGAGAUUUUUUCCUCGAGCAA, the nonsense suppression was not above 0.026.

For the variant UUCUCGGUAGCCAAGUUGGUUUAAGGCGCAAGACUUUAAUUUAUCACUACGAAAUCUUGAAAUCGGGCGUUCGACUCGCCCCCGUGAGAUUUUUUCCUCGAGCAA, the nonsense suppression is not above 0.026.

For the variant CUCUCGGUGGCCAAGUUGGUUUAAGGCGCAAGACUUUAAUUUAUCACUACGAAAUCUUGAGAUCGGGCGCUCGACUCGCCCCCGGGAGAUUUUUUCCUCGAGCAA, the nonsense suppression is not above 0.026.

As to CUCUCGGUAGCCAAGUUGAUUUACGGCGCAAGACUUUAAUUUAUCACUACGAAAUCUUGAGAUCGGGCCUUCGACUCGCCCCCGCGAGAUUUUUUCCUCGAGCAA, the nonsense suppression is not above 0.026.

With CUCUCGGUAGCCAAGUUGGUUUAAGGCGCAAGACAUUAAUUUAUCACUACGAAAUCUUGAGAUCGGGCGUUCGACUCGCCCCCGGGAGAUUUUUUCCUCGAGCAA, the nonsense suppression is not above 0.026.

On to CUCUCGGUAGCCAAGUGGGUUUAAGGCGCAAGACUUUAAUUUAUCACUACGAACUCUUGAGAUCGGGCGUUCGACUCGCCGCCGGGAGAUUUUUUCCUCGAGCAA, for which the nonsense suppression is not above 0.026.

For CUCUCGGUAGCCAAGUUGGUUUAAGGCGCAAGACUUUAAUUUAUCACUACGAAAUCUUGAGAGCGGACGUUCGACUCGCCCCCGGGAGAUUUUUUCCUCGAGCAA, the nonsense suppression was found to be 0.0444.

In the case of CUCCCGGGAGCCAAGUUGGUUUAAGGCGCAAGACUUUAAUUUAUCACUACGAAAUCUUGAGAUCAGGCGUUCGACUCGCCCCCGGGAGAUUUUUUCCUCGAGCAA, the nonsense suppression is not above 0.026.
